Data taken from the supplement of paper PMC3334620.
In all, about 33,000 sequences were measured (“E-score (-0.5 to 0.5)”: median about -0.04, highest 2% from about 0.36 on). Some of the results follow.

What follows are sequences tested against T1, Hmlalpha2 (UniProt P0CY09) (assay: PBM E-score (8-mer binding enrichment) (E-score (-0.5 to 0.5)); higher = stronger / more preferred TF binding; most listed sequences are background and not binding sites). Conditions: protein concentration: 200 nM; construct: GST-full length.
T1 sequence: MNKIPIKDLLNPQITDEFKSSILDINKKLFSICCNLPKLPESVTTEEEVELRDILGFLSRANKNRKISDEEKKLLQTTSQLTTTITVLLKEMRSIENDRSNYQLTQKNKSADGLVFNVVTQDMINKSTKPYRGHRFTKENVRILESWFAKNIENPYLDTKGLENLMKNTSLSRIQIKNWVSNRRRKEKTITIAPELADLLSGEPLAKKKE
Outline: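 Yeast transcription factors carrying a GST tag, as full-length proteins or DNA-binding domains, were produced by PURExpress in vitro transcription/translation. About 100-200 nM protein was applied to universal all-10-mer Agilent arrays, double-stranded by primer extension on fresh or once-stripped slides. Bound protein was detected with fluorescent anti-GST, and scans were normalised with masliner. The Universal PBM Analysis Suite gave each ungapped eight-base word, pooled with its reverse complement, an E-score, a modified Wilcoxon-Mann-Whitney statistic.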

Row | Sequence | PBM E-score
1 | TATACTGA | 0.149
2 | CACATGGA | 0.197
3 | TGATTCAA | 0.14
4 | ATGAATAC | 0.236
5 | TCGCCCAA | -0.0523
6 | CAACCGGG | -0.128
7 | AAGTGCAA | -0.0589
8 | TGTGATAA | 0.319
9 | ATATGATG | 0.0609
10 | GTTGTAAA | 0.385
11 | TCCTAAGA | -0.132
12 | ATGCACAA | 0.0934
13 | AAACATGG | 0.349
14 | AGGGCAGC | -0.199
15 | ACCAGCGC | -0.189
16 | GCTTGATA | 0.00761
17 | GAATAAAA | 0.247
18 | AGTCACCC | -0.298
19 | CGTCGGTA | -0.018
20 | ATATCGGG | -0.163
21 | TCAAATGA | -0.102
22 | AATGAAGT | 0.0316
23 | AACGGGAA | -0.00155
24 | GCATACAA | 0.108
25 | GCATCCCC | -0.344

Row | Sequence | PBM E-score
26 | ACCACGTG | 0.137
27 | ACGTGTAG | 0.429
28 | ACGGCGAG | 0.0639
29 | GGACTCTA | -0.0649
30 | ACTCTAAA | 0.0412
31 | CTGAAGTC | -0.223
32 | CATAATCG | -0.13
33 | ATTAAGTC | 0.189
34 | AAGAGGTG | -0.00734
35 | CTACCGCA | -0.215
36 | AGGTATTA | 0.164
37 | ACTACTAG | 0.0964
38 | AGCGCGCT | 0.0199
39 | GCTTGCCA | -0.0301
40 | TCGGCGAA | -0.26
41 | AGGTGAGG | -0.36
42 | GCCCTGCC | -0.203
43 | CCCGGCAA | -0.0383
44 | AGAAGTCC | -0.183
45 | CAATACGC | 0.265
46 | CTGAACGC | -0.0206
47 | CCGGCCGG | -0.122
48 | GGTGACAA | 0.145
49 | GCATCACC | -0.261
50 | TTCCTAAA | 0.0359

Row | Sequence | PBM E-score
51 | ATCCAGTG | 0.0457
52 | CCGCGTTA | 0.336
53 | CTCCTGGA | -0.261
54 | TAATTCTA | 0.19
55 | GCGCTCGA | -0.0541
56 | ACGTCGGG | -0.251
57 | GCCGGACA | -0.109
58 | GATTAGGA | -0.162
59 | CTCAGGAA | -0.0715
60 | AGTTTAAG | 0.0532
61 | TTAAGCAA | 0.147
62 | CTGAGACA | -0.136
63 | AGGAACCT | 0.00098
64 | ATGTTATA | 0.418
65 | ACTCGCTC | 0.0551
66 | ATAGGCAA | -0.0747
67 | GACTGTGA | -0.0129
68 | AGCCCATA | -0.018
69 | AGCTCTTA | 0.0441
70 | CCATCTCC | -0.219
71 | GGCCGCCA | -0.256
72 | AGGATTCC | -0.175
73 | CTAGATGC | -0.145
74 | CGACTCGA | -0.0823
75 | CGTCGGAA | 0.135

Row | Sequence | PBM E-score
76 | AGGCTTAA | -0.135
77 | AAATGAAA | 0.183
78 | CTCCGAAA | -0.116
79 | CGCAAAGC | -0.156
80 | ACGAGGGA | -0.0452
81 | GAGATGGA | -0.206
82 | GGTATGTA | 0.4
83 | ATCTCCGC | -0.214
84 | CAAGAACA | 0.208
85 | CCACTTGC | -0.337
86 | ACCCATCT | -0.0821
87 | CACACGTA | 0.271
88 | CCGTTGCG | -0.113
89 | CGGAGGGA | -0.335
90 | GAGAAACA | 0.171
91 | GAGTGTGA | 0.0212
92 | AAAGCCGC | -0.245
93 | GCAGCGGC | -0.197
94 | ATCCCTAA | -0.265
95 | CGGCCAAC | -0.174
96 | ACCGTCCT | -0.139
97 | AGGTAGTG | -0.0862
98 | AACGATTG | 0.165
99 | ACCAGGTA | -0.111
100 | AAATTGGA | 0.134

Row | Sequence | PBM E-score
101 | CCTTGGAG | -0.15
102 | ACGGTTAT | -0.0775
103 | CAATGAGA | -0.0807
104 | CGTGACCC | -0.00165
105 | AGTGGCCG | -0.325
106 | CCCATCGC | -0.281
107 | GTTTCTTA | 0.0738
108 | ATGTCGGA | 0.0661
109 | GCGGGAAA | 0.00677
110 | GAATTACA | 0.444
111 | CTCTCGCC | -0.323
112 | GGCTGAAA | 0.0965
113 | AGATCGAA | -0.0126
114 | TCTAGAGA | -0.201
115 | CGTATTAG | 0.263
116 | ATTCATCC | 0.128
117 | AAAAGGTT | -0.259
118 | AGATAGTC | -0.0659
119 | CCATAATA | 0.00645
120 | CCCTGAGG | -0.0852
121 | CAGTGATC | -0.0129
122 | GCACTCAC | -0.121
123 | GCGAGCGC | -0.0986
124 | GGCTTAAA | -0.0594
125 | CATTGGGC | -0.211

Row | Sequence | PBM E-score
126 | ATCCTTCA | 0.209
127 | GACTTCAC | -0.0702
128 | CGTCCACC | -0.24
129 | AAAACAAT | 0.249
130 | CTCTCAAA | 0.0696
131 | CCACGTTC | -0.0393
132 | ATAACAGC | 0.254
133 | TGAAGCCA | 0.0489
134 | AAGCTGGT | 0.11
135 | ATTGCTTG | 0.102
136 | GGTAAGGA | -0.0864
137 | AAGTACCA | 0.077
138 | AGACTCCA | -0.265
139 | TATAGGCA | -0.129
140 | TAGTTGAA | 0.0913
141 | GTCCAAGA | -0.209
142 | TCACGCCA | -0.00448
143 | AATAATAA | 0.311
144 | GCGTTTTA | 0.192
145 | CACGATAC | 0.127
146 | AATTAAAT | 0.13
147 | CCATTTCC | 0.00202
148 | CAGCCGAG | -0.14
149 | GTTCGACA | 0.283
150 | AAACAGAT | 0.213

Row | Sequence | PBM E-score
151 | AGCTTTGG | -0.155
152 | ACGTAATG | 0.408
153 | CTGTCTCA | -0.319
154 | AGTGCGGA | -0.0409
155 | AGGGCCAC | -0.049
156 | CCGGCTCC | -0.369
157 | CAATATCC | -0.142
158 | ATCCCTGA | -0.143
159 | AGGGTCCC | -0.257
160 | CCGAAAAG | -0.0714
161 | GCGAAGCC | -0.242
162 | CTGTTTCA | 0.0707
163 | ATGGGAGA | -0.179
164 | TAAACTTA | 0.228
165 | AGGCGCGG | -0.0549
166 | GGAGAACC | -0.23
167 | GTGCCAAC | 0.0171
168 | CAGAGCGC | -0.0746
169 | AGATCCAT | -0.18
170 | AAAATCGT | 0.0614
171 | CACGTCAA | 0.185
172 | AGATCTAT | 0.0951
